Source: publication PMC4336329 (PLoS ONE, 2015)
Among all 310,000 compounds or so, about 14,000 (4.5%) showed an effect of 50% or more. Effects have a minus sign here. Some of the results follow.

What follows are compounds tested against human ether-à-go-go-related gene (hERG) potassium channel (human, UniProt Q12809) (assay: primary screen, population patch clamp on CHO cells stably expressing hERG).
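Also: peak tail current of the secondary pulse compared with the same well before compound.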

Chain of human ether-à-go-go-related gene (hERG) potassium channel (Q12809 whole entry, looked up): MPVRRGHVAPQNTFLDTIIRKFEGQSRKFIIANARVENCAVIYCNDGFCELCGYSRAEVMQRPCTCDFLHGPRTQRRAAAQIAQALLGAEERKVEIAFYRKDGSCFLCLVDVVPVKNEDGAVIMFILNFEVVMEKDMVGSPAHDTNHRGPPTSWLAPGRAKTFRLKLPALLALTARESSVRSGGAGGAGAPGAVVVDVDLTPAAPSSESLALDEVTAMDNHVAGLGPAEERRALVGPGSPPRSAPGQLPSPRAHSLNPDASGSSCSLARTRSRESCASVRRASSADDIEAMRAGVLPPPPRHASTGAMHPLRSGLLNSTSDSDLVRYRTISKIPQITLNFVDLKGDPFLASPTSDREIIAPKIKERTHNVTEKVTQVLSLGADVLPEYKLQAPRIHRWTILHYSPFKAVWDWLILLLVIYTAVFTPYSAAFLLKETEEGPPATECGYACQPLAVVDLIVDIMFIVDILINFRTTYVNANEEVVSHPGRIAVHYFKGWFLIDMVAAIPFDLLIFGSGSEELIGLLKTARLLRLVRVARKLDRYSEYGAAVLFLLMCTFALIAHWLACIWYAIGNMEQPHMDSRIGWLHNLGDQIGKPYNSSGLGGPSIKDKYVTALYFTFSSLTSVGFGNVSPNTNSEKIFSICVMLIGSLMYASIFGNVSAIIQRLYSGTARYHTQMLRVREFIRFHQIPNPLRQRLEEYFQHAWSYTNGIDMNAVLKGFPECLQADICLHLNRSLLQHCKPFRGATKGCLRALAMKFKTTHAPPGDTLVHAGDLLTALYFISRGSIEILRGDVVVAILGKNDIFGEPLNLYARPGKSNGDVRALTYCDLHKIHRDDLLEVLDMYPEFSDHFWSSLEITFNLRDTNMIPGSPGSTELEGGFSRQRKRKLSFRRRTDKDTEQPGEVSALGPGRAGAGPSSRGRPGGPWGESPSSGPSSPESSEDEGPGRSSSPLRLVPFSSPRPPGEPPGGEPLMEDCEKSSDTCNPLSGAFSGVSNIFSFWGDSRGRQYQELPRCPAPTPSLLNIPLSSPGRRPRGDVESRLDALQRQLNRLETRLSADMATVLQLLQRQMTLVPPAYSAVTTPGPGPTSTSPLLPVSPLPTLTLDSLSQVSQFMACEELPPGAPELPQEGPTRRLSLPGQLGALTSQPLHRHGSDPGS

SMILES | hERG current change (%, negative = inhibition) at 10uM
COc1ccccc1N1C(=O)CC(Sc2n[nH]c(-c3cccc(C)c3)n2)C1=O (stereo not shown) | 12.2%
Clc1ccccc1CSc1nnc(-c2ccco2)c(-c2ccco2)n1 | -12.7%
COCCCNC(=O)CSc1nc2ccccc2c(=O)n1CCCN1CCCCC1 | 2.04%
CSCC(=O)N1CCCC(CNC(=O)c2ccccc2Cl)C1 (stereo not shown) | 20.4%
COc1ccc(CCNC(=O)CN2CCN(Cc3ccc(F)cc3)C2=O)cc1OC | 5.01%
Cc1ccc(C(=O)CC2(O)C(=O)N(C)c3ccccc32)s1 (stereo not shown) | -9.08%
O=C(Nc1ccc(C(F)(F)F)cc1)c1ccccc1 | 20.4%
CCC(C)c1ccc(NC(=S)NC2CCN(Cc3ccccc3)CC2)cc1 (stereo not shown) | -61.8%
O=C(O)C1CCCN1C(=O)Nc1ccc(F)cc1 (stereo not shown) | 1.7%
COc1ccc(CCNC(=O)CSCc2ccc(F)cc2)cc1OC | -8.86%
Cc1ccc2nc(-c3ccc(NC(=O)CN4CCN(C(=O)c5ccco5)CC4)cc3)sc2c1 | 9.57%
O=C(Nc1cccc(S(=O)(=O)N2CCOCC2)c1)c1ccc(N2CCCC2=O)cc1 | 8.25%
O=C(Nc1ccncc1)c1ccc(Cl)cc1 | -3.8%
NC(=O)CCC(NC(=S)Nc1ccccc1)C(=O)O (stereo not shown) | 15.2%
CC(=O)NS(=O)(=O)c1ccc(NC(=O)CSc2ccccc2)cc1 | 2.57%
O=C1C(=O)N(Cc2cccnc2)C(c2cccc(Br)c2)/C1=C(/O)c1ccc2c(c1)OCO2 (stereo not shown) | 5.15%
CCNc1nc2c(c(=O)n(C)c(=O)n2C)n1Cc1ccc(Cl)cc1 | -7.07%
Cn1ccnc1Sc1cc(Cl)ccc1[N+](=O)[O-] | 14.3%
Cc1ccccc1C(=O)NCC(=O)OC(C)C(=O)Nc1cccc(S(=O)(=O)N2CCOCC2)c1 (stereo not shown) | -0.584%
CC(=O)C1=C(C)N(Cc2ccccc2)C(=O)N[C@H]1CCc1ccccc1 | -15.8%
O=C(N/C(=C/c1cccnc1)C(=O)N1CCOCC1)c1ccccc1 | -5.27%
CCCCC(=O)Nc1c2c(nn1-c1cccc(C)c1C)CS(=O)(=O)C2 | -0.869%
O=C(/C=C/c1cccs1)N1CCN(c2ccccc2)CC1 | 1.88%
COc1ccc(C2(C(=O)O)CCCC2)cc1 | 10.4%
COc1cc2oc3ccc(C#Cc4ccccn4)cc3c(=O)c2cc1OC | 6.07%
